Laboratory results from PubChem BioAssay AID652104 (National Center for Advancing Translational Sciences (NCATS), 2013).
The campaign covered roughly 410,000 compounds. About 7,200 (1.8%) were called active. The inconclusive results got no clear call from the source; some entries with a clear call stand among them for comparison. Calls follow the shape of the dose curve; as a rule, active = well fitted activation curve with a large enough effect; inconclusive = small, poorly fitted or top-dose-only effect, or another doubt; inactive = no such curve, though single readings can be large or run the other way. Potencies of inconclusive entries are left out as doubtful fits.

Assay: qHTS of TDP-43 Inhibitors; also: nearly all actives have a fitted effect of over 50% in size; as to growth rescue (activation): % of control where 0% means no effect
Conditions: TDP-43 expressing yeast growth rescue, BacTiter-Glo, 24 h; growth rescue (activation): at 46.1 µM (top of the series) unless noted
In short: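 Yeast expressing TDP-43 (pregrown in raffinose, seeded at OD600=0.02 in galactose medium) exposed to compounds 24 hr at 30 deg C. Growth read by BacTiter-Glo luminescence; rescue of toxicity appears as increased signal.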
Potency is read from the fitted curve at half-maximal effect; tags tell the direction and shape of the fitted curve.

Compound | Potency | growth rescue (activation)
Cc1ccc(S(=O)(=O)N2CCCCC2)cc1NC(=O)C1COc2ccccc2O1 (stereo not drawn) | inconclusive [activator, partial curve] | 
Cc1ccc(OCc2nc(-c3ccccc3)no2)cc1 | inconclusive [activator, single point] | 
C/C(=N\N=c1/scc(C)n1Cc1ccco1)c1cccc([N+](=O)[O-])c1 | inconclusive [activator, single point] | 
N/C(=N\OC(=O)c1ccco1)c1ccccc1 | inconclusive [activator, single point] | 
S=C(NCc1ccccc1)NC1CCCc2ccccc21 (stereo not drawn) | inconclusive [activator, single point] | 
Cc1cc(C)cc(N2C(=O)CSC23C(=O)N(Cc2c(F)cccc2Cl)c2ccccc23)c1 (stereo not drawn) | inconclusive [activator, single point] | 
O=C(Nc1cccc(F)c1)NC1CCCc2ccccc21 (stereo not drawn) | active: 12.6 µM | 
COCCCn1c(=N)c(C(=O)NCC2CCCO2)cc2c(=O)n3cccc(C)c3nc21 (stereo not drawn) |  | inactive: -7.83%
COCCN(C(=O)c1ccco1)c1nnc(-c2ccc(F)cc2)s1 | inconclusive [activator, single point] | 
Cc1ccc2nc(SCc3nc(-c4ccc(Cl)cc4)no3)[nH]c2c1 | inconclusive [activator, single point] | 
Cc1ccc(C23CC4CC(CC(CN)(C4)C2)C3)cc1 |  | inactive: -7.38%
O=C(CSc1nc(=O)n(CCN2CCOCC2)c2c1CCC2)Nc1ccc(Cl)c(Cl)c1 |  | inactive: 16.2%
O=C(Nc1ccc(Br)cc1F)C1CC(=O)N(C2CCCCC2)C1 (stereo not drawn) | inconclusive [activator, full curve] | 
CCOC(=O)c1ccc(NC(=S)N2CCN(C)CC2)cc1 | inconclusive [activator, single point] | 
CCOC(=O)c1c(-c2ccc(C)o2)csc1NC(=S)NC(=O)N(C)C | inconclusive [activator, single point] | 
COc1cc2c(cc1OC)n(CC(=O)c1cc(C)ccc1C)c(=O)n1nc(CCn3nc(C)cc3C)nc21 |  | inactive: 17.1%
COC(=O)c1ccc(Nc2ncnc3sccc23)cc1 | inconclusive [activator, partial curve] | 
Cc1ccc(C(=O)NC2CCN(S(=O)(=O)c3ccccc3)CC2)cc1 | inconclusive [activator, partial curve] | 
CC1CCCN(c2nc3c(c(=O)[nH]c(=O)n3C)n2CCCc2ccccc2)C1 (stereo not drawn) | inconclusive [activator, single point] | 
COc1ccc(-c2cn3cccnc3n2)cc1NC(=O)c1cc(OC)c(OC)c(OC)c1 | inconclusive [activator, full curve] | 
Cc1cc(Nc2ccc(F)cc2F)nc(-n2nc(C)cc2C)n1 | inconclusive [activator, partial curve] | 
O=C(Nc1ccc(Br)cc1)c1cnccn1 | inconclusive [activator, single point] | 
Cc1cccc2c1N1C(=O)c3c(C(=O)O)cccc3C1CC2C (stereo not drawn) | inconclusive [activator, single point] | 

Compound | Potency | growth rescue (activation)
CCCn1c(CCC(=O)O)ccc1-c1cccs1 | inconclusive [activator, single point] | 
Cc1ccccc1OCCC(=O)N1CCN(S(=O)(=O)c2ccc(Cl)cc2)CC1 | inconclusive [activator, single point] | 
CC(=O)NC(c1cccs1)c1cc([N+](=O)[O-])c2cccnc2c1O (stereo not drawn) | inconclusive [activator, partial curve] | 
Cc1ccc(S(=O)(=O)c2cc(Nc3ccccc3)ccc2O)cc1 | inconclusive [activator, single point] | 
O=C(c1ccc(N2CCCCC2)c([N+](=O)[O-])c1)N(c1ccccn1)c1ccccn1 | inconclusive [activator, partial curve] | 
Cc1ccc(C)c(C(=O)O/N=C(\N)c2ccc(Br)cc2)c1 |  | inconclusive: -92.7% [activator]
Cc1ccc(N2CCN(S(=O)(=O)c3ccc(Cl)c4ccccc34)CC2)c(C)c1 |  | inactive: 19.1%
COc1ccc2c(c1)OC[C@H]1[C@H]2N2C(=O)c3ccccc3NC(=O)[C@@]2(C)[C@H]1c1ccccc1 | active: 28.2 µM | 
CS(=O)(=O)c1ccc(Nc2nc(C(N)Cc3ccc(Cl)cc3)cs2)cc1 (stereo not drawn) |  | inactive: 0.61%
CCCNC(=O)c1ccc(Cn2c(=O)c3cccn3c3cccnc32)cc1 | inconclusive [activator, partial curve, poor fit] | 
C[C@H](CO)N1C[C@H](C)[C@@H](CN(C)S(=O)(=O)c2cn(C)cn2)Oc2ccc(NC(=O)Cn3cnnn3)cc2C1=O | inconclusive [activator, full curve] | 
CN(Cc1ccccc1)C(=O)c1ncn2c1c(=O)[nH]c1cccnc12 | inconclusive [activator, single point] | 
CC1(C)CC(=O)C(C=NCCN2CCN(C(=O)c3ccc(F)cc3)CC2)=C(O)C1 | inconclusive [activator, partial curve] | 
O=S(=O)(Nc1nc2ccccc2nc1NCC1CCCO1)c1cccc(Cl)c1 (stereo not drawn) | inconclusive [activator, single point] | 
O=C1CCc2cc(S(=O)(=O)NCCc3ccccc3)cc3c2N1CC3 |  | inactive: 7.38%
Cc1ccc(-c2nnc(Nc3ccccc3)c3ccccc23)cc1S(=O)(=O)N1CCN(C)CC1 | inconclusive [activator, partial curve, poor fit] | 
COCCNc1nc2cc(-c3ccccc3OC)sc2c(=O)n1C | active: 14.1 µM | 
CC1CC(C)CN(C(=O)COC(=O)c2c[nH]c3ccccc23)C1 (stereo not drawn) |  | inactive: 12.1%
CCc1ccccc1NC(=S)NC1CC2CCCC(C1)N2Cc1cccs1 (stereo not drawn) |  | inactive: -10.7%
COc1cccc2c(=O)c3c(cnn3C)n(C)c12 | inconclusive [activator, single point] | 
O=c1[nH]cnc2c1c(-c1ccccc1)cn2-c1ccccc1 | inconclusive [activator, partial curve] | 
O=C(NCc1ccccc1)c1ccc2nccnc2c1 | inconclusive [activator, single point] | 
CCc1ccccc1NC(=S)NCCSc1ccc(Cl)cc1 | active: 12.6 µM | 

Compound | Potency | growth rescue (activation)
COCCCNC(=O)C1Cc2cc(S(=O)(=O)N3CCCC3)ccc2N1C(C)=O (stereo not drawn) | inconclusive [activator, single point] | 
CCOc1cccc(-c2cc(C(=O)N3N=C(C)CC3(O)C(F)F)c3ccccc3n2)c1 (stereo not drawn) | active: 17.8 µM | 
Cc1nc(SCc2cccc(F)c2)c2oc3ccccc3c2n1 | inconclusive [activator, full curve, poor fit] | 
CCOC(=O)c1cc(-c2ccccc2)n(CC2CC(c3ccc(OC)cc3)=NO2)n1 (stereo not drawn) | inconclusive [activator, partial curve] | 
CCCOc1ccc(C2C(C(=O)c3ccc(C)o3)=C(O)C(=O)N2Cc2ccco2)cc1 (stereo not drawn) |  | inactive: 16.3%
Cc1ccccc1-c1cc(C(=O)NCc2ccc(OC(F)(F)F)cc2)n(CC2CC(c3cccnc3)=NO2)n1 (stereo not drawn) | inconclusive [activator, single point] | 
CN(C)c1ccc(C(=O)N2CCN(c3cc(C(F)(F)F)nc4ccccc34)CC2)cc1 | inconclusive [activator, single point] | 
C=Cc1ccc(Cn2ccn(-c3ccc(F)c(F)c3)c(=O)c2=O)cc1 |  | inactive: 2.58%
COc1ccc(CCN2C(=O)c3[nH]nc(-c4ccccc4O)c3C2c2ccccc2)cc1 (stereo not drawn) | inconclusive [activator, partial curve] | 
C[C@]12CCC3c4ccc(O)cc4CCC3C1CC/C2=N\N (stereo partly drawn) | inconclusive [activator, single point] | 
CCOC(=O)C1=C(C)N(C)C(=O)NC1c1c(C)nn(-c2ccc(C)cc2)c1Cl (stereo not drawn) | inconclusive [activator, single point] | 
CCc1ccccc1N(C)S(=O)(=O)c1ccc2c(c1)C(C)(C)C(=O)N2C | inconclusive [activator, partial curve, poor fit] | 
CCCn1c(CC)nc([N+](=O)[O-])c1S(=O)(=O)c1ccccc1 | active: 25.1 µM | 
CC(C)c1nc(SCC(=O)c2ccc(F)cc2)c2ccccc2n1 | inconclusive [activator, single point] | 
COc1cccc(NC(=O)c2csnn2)c1 |  | inactive: 10.3%
CC1(Cc2ccc(Cl)s2)C(=O)Nc2c(Cl)ccc(Cl)c21 (stereo not drawn) |  | inactive: -49.2%
Cc1ccc(Cn2c(C(CO)Nc3nc(-c4ccc(F)cc4)cs3)nc3ccccc32)cc1 (stereo not drawn) |  | inactive: -70.8%
CC(=O)/C=C\c1cn(-c2ncc(C(F)(F)F)cc2Cl)c2ccccc12 | inconclusive [activator, single point] | 
CC1(C(=O)NCCOc2ccccc2Cl)CC1(Cl)Cl (stereo not drawn) | inconclusive [activator, single point] | 
C#CC(c1ccccc1)(c1ccccc1)n1ccnc1 | active: 3.55 µM | 
CCOc1ccc(-c2cc3nc(C4CCN(C(=O)OC(C)(C)C)CC4)c(C(=O)Nc4c(C)cccc4C)cn3n2)cc1 | inconclusive [activator, full curve, poor fit] | 
CCSc1nnc2c(n1)[nH]c1c(C)cccc12 | inconclusive [activator, single point] | 
